From article PMC4336329 (PLoS ONE, 2015) come the findings set out here.

The campaign covered roughly 310,000 compounds. About 14,000 (4.5%) showed an effect of 50% or more. The effect is printed as a negative number. Some of the results follow.
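Further: peak tail current of the secondary pulse compared with the same well before compound.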

For the test, the target named is human ether-à-go-go-related gene (hERG) potassium channel (human, UniProt Q12809). As to the kind of experiment: primary screen, population patch clamp on CHO cells stably expressing hERG.
Sequence of human ether-à-go-go-related gene (hERG) potassium channel (Q12809 whole entry, looked up): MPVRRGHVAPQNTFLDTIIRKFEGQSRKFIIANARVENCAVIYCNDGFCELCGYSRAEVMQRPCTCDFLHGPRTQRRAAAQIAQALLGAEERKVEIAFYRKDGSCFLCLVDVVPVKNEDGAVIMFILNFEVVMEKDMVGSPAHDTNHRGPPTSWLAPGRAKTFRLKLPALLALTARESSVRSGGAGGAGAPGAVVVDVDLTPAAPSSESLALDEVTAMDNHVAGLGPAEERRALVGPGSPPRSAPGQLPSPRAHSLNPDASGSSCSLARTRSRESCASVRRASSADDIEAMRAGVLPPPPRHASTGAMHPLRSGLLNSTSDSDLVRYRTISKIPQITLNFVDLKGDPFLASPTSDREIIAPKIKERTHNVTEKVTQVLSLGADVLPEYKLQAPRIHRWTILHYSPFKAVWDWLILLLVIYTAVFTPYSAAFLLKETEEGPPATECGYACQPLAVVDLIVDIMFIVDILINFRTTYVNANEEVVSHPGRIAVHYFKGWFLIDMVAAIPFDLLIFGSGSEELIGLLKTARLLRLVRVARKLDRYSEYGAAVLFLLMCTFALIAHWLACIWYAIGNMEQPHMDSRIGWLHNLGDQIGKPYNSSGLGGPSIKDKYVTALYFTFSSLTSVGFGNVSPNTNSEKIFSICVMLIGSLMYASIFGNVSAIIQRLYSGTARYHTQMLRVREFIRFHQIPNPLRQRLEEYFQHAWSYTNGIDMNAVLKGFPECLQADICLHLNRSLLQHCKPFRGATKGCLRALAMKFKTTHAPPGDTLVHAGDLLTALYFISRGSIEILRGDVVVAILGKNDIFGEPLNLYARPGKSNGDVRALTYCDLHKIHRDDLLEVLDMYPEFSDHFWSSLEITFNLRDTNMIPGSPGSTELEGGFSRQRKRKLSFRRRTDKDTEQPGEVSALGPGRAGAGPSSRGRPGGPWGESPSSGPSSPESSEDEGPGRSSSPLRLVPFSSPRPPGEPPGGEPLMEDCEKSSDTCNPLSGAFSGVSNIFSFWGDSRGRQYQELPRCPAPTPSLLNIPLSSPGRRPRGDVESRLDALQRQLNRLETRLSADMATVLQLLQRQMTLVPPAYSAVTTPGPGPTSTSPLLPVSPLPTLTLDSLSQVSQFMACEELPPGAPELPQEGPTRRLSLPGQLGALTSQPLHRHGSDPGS
Turning to `CC(Sc1ccccn1)C(=O)Nc1ccc(S(N)(=O)=O)cc1` (stereo not shown), the “hERG current change (%, negative = inhibition) at 10uM” value is recorded as 19.5%.
`Cc1ccc(Sc2ncccc2C(=O)O)c(C)c1`: the “hERG current change (%, negative = inhibition) at 10uM” value turned out to be 7.39%.
Consider `O=C(NCCN1CCCC1)C1(S(=O)(=O)c2ccc(Cl)cc2)CC1`, for which the “hERG current change (%, negative = inhibition) at 10uM” value was 11.7%.
On to `CC(=O)c1ccc(Nc2nc(-c3cccnc3)cs2)cc1`, for which the “hERG current change (%, negative = inhibition) at 10uM” value was 6.18%.
On to `Cc1nc(COc2ccc(C(=O)NCc3ccccc3CN3CCCCC3)cc2)cs1`, for which the “hERG current change (%, negative = inhibition) at 10uM” value is given as -52.5%.
Turning to `O=C(Cc1ccccc1)N/N=C/c1cc(Br)cs1`, the “hERG current change (%, negative = inhibition) at 10uM” value is recorded as 4.39%.
Regarding `O=C1CCC(C(=O)Nc2ccc(OC(F)F)cc2)N1` (stereo not shown), the “hERG current change (%, negative = inhibition) at 10uM” value was determined as 3.6%.
Regarding `CCCn1c(NCc2ccc3c(c2)OCO3)nc2ccccc21`, the “hERG current change (%, negative = inhibition) at 10uM” value is given as 12.6%.
On to `CC1CCN(C(=O)c2ccc(NS(=O)(=O)c3ccccc3)cc2)CC1`, for which the “hERG current change (%, negative = inhibition) at 10uM” value is recorded as -0.415%.
As for `COCCn1c(SCC(=O)Nc2cccnc2Cl)nc2ccccc2c1=O`, the “hERG current change (%, negative = inhibition) at 10uM” value is reported as 4.53%.
Regarding `c1ccc2c(NC3=NCCS3)cccc2c1`, the “hERG current change (%, negative = inhibition) at 10uM” value was found to be 10.8%.
Next, `CCOc1ccc(Cl)cc1CNc1nnnn1CC`: 9.54%; `CCOC(=O)c1c(-c2cccc(N)c2)cn2ccccc12`: 19.3%; `CCc1cccc(NC(=O)CCCn2nc(C)c3c(C)n(-c4ccccc4)nc3c2=O)c1`: -10.1%.
Then `CCOc1ccc(N(CC(=O)N2CCCC2)S(=O)(=O)c2ccc(F)cc2)cc1`, with -12.2%; and `COc1ccc(-c2coc3c(CN4CCCCC4)c(O)c(CN4CCCCC4)c(O)c3c2=O)cc1`, with -79.2%; and `CC12CN3CC(C)(CN(C1)C3c1c[nH]c3ccccc13)C2=O` (stereo not shown), with -9.4%.
In the case of `COc1ccc(CNc2nc(S(=O)(=O)c3ccccc3)c(Cl)s2)cc1OC`, the “hERG current change (%, negative = inhibition) at 10uM” value turned out to be 1.39%.
Regarding `COc1cccc2c1OCC(C(=O)O)C2` (stereo not shown), the “hERG current change (%, negative = inhibition) at 10uM” value was found to be 37%.
Take `COCCCN1CC(=O)N2C(c3cccc(C)c3)c3[nH]c4ccccc4c3C[C@H]2C1=O` (stereo partly shown): the “hERG current change (%, negative = inhibition) at 10uM” value is listed as -40.8%.
`CC1(C)Nc2ccccc2C(=O)N1c1ccc(Br)cc1`: the “hERG current change (%, negative = inhibition) at 10uM” value is 8.99%.
Take `CN(C)CC(C)(C)CNCc1cc(=O)oc2ccc3ccccc3c12`: the “hERG current change (%, negative = inhibition) at 10uM” value was -1.16%.
Take `CN(C)S(=O)(=O)c1ccc(NC(=S)NC(=O)c2ccc(Br)o2)cc1`: the “hERG current change (%, negative = inhibition) at 10uM” value is 20.1%.
`Cc1nc(-c2ccccc2)cc(=O)[nH]1`: the “hERG current change (%, negative = inhibition) at 10uM” value is given as 6.48%.
Then `NS(=O)(=O)c1ccc(CCNc2ncnc3sccc23)cc1`, with 5.9%; and `CCN(CC)CCCNC(=O)Cn1nc([N+](=O)[O-])c(Cl)c1C`, with 24.2%; and `CCOc1ccc(NC(=O)c2nnn(CC(=O)Nc3ccccc3OCC)c2N)cc1`, with -7.22%.
With `CCOC(=O)Nc1ccc(S(=O)(=O)Nc2cc(C)nc(C)n2)cc1`, the “hERG current change (%, negative = inhibition) at 10uM” value amounted to 3.68%.
Then `Cc1ccc(-c2nc(Nc3cccc(C)c3)sc2CC(=O)O)cc1`, with 5.09%; and `O=C(Cn1cc(C(F)(F)F)cc(Cl)c1=O)NCc1ccccc1`, with 27.1%; and `CC1CCN(C(=O)c2ccc3c(Cl)c4c(nc3c2)CCCC4)CC1`, with -23.7%.
In the case of `CCc1ccc(NC(=S)N2CCN(c3cccc(C(F)(F)F)c3)CC2)cc1`, the “hERG current change (%, negative = inhibition) at 10uM” value is on record as 3.59%.
Consider `C=C1[C@H]2C[C@H]3[C@H]4N5C[C@]6(C)CCC[C@]47[C@H]([C@H]2O)[C@]3(C[C@]5(O)[C@H]67)[C@@H]1O`, for which the “hERG current change (%, negative = inhibition) at 10uM” value was found to be 5.56%.
Next, `Cc1noc(C)c1C(=O)N(CC(C)C)c1nc2ccccc2s1`: 4.69%; `Cc1ccccc1Cn1cc(NC(=O)c2noc3c2CC(C(C)(C)C)CC3)cn1` (stereo not shown): 0.814%.
As for `COC(=O)CSc1nnc(-c2cccnc2)o1`, the “hERG current change (%, negative = inhibition) at 10uM” value amounted to 12.8%.
Then `CCOc1ccc(NC(=O)NC(C)CC)cc1` (stereo not shown), with 2.89%; and `Cc1cc(C)nc(/N=C2\NC(=O)CC3C(=O)NCCN23)n1` (stereo not shown), with 10.6%.
As for `CC(C)N1CCN(C2CSCCSC2)CC1CCO` (stereo not shown), the “hERG current change (%, negative = inhibition) at 10uM” value was -10.4%.
Regarding `S=c1[nH]c2cc(Cl)c3cccnc3c2o1`, the “hERG current change (%, negative = inhibition) at 10uM” value is recorded as 21%.
Consider `CN1CCN(C(=O)C2=C[C@H](C(C)(C)C)C[C@H](OCCCCO)O2)CC1`, for which the “hERG current change (%, negative = inhibition) at 10uM” value is listed as -1.76%.
Turning to `COc1cc(/C=N/n2cnnc2)ccc1OC(=O)c1cccnc1`, the “hERG current change (%, negative = inhibition) at 10uM” value is reported as 0.698%.
Turning to `O=C1NC(=O)N(Cc2ccc(F)cc2)C(=O)/C1=C\c1ccoc1`, the “hERG current change (%, negative = inhibition) at 10uM” value is 8.81%.
Next, `O=C(Nc1ccc(Oc2ccccc2)cc1)C1CCCO1` (stereo not shown): -4.83%; `CCOC(=O)CSc1nc2c(c(=O)[nH]c(=O)n2C)n1Cc1ccccc1`: -32.9%; `CCOc1ccc(C(=O)C[n+]2cccc3cc(C)ccc32)cc1.[Br-]`: -47.9%.
Next, `ClCC1CN(Cc2ccccc2Cl)CCO1` (stereo not shown): 33.3%; `Nc1c(C(=O)Nc2nccs2)sc2nc(-c3cccs3)cc(C(F)(F)F)c12`: 22.2%; `CCOC(=O)C1=C(C)N(c2ccccc2)C(=O)NC1c1cccc([N+](=O)[O-])c1` (stereo not shown): -37%.
Take `COc1ccc(CCC(=O)N(C)CC(=O)Nc2ccc(Cl)c(C(F)(F)F)c2)cc1`: the “hERG current change (%, negative = inhibition) at 10uM” value came to 22.2%.
For the compound `O=c1[nH]c2ccccc2cc1CN(Cc1cccnc1)S(=O)(=O)c1ccc([N+](=O)[O-])cc1`, the “hERG current change (%, negative = inhibition) at 10uM” value is -23.9%.
Regarding `COc1ccc(N2CC(C(=O)Nc3ccc(S(=O)(=O)N4CCCC4)cc3)CC2=O)cc1` (stereo not shown), the “hERG current change (%, negative = inhibition) at 10uM” value was 8.44%.
For the compound `CCOC(=O)CSc1nc(N)nc(C)c1Br`, the “hERG current change (%, negative = inhibition) at 10uM” value is recorded as -9.9%.
Regarding `CCOC(=O)N1CC=C2C(C#N)=C(N)C(C#N)(C#N)[C@H](c3ccsc3)[C@H]2C1`, the “hERG current change (%, negative = inhibition) at 10uM” value amounted to 7.66%.
Take `CCOC(=O)N1CCN(C(=O)C(CC(C)C)NS(=O)(=O)c2ccc3c(c2)oc(=O)n3C)CC1` (stereo not shown): the “hERG current change (%, negative = inhibition) at 10uM” value was -12.4%.
Then `CCN1C(=O)/C(=C\c2nc3ccccc3c(=O)n2CC)c2ccccc21`, with 7.75%.
Turning to `NC(=O)[C@H]1CC2(CC(c3cccc(NC(=O)COc4ccc(Cl)cc4)c3)=NO2)CN1C(=O)c1ccc(Cl)cc1` (stereo partly shown), the “hERG current change (%, negative = inhibition) at 10uM” value is recorded as -9.96%.
Then `CCOC(=O)c1oc2ccccc2c1NC(=O)CCl`, with 8.84%; and `Cc1cccc(Oc2ccc(NC(=O)C3CC=CCC3C(=O)O)cc2)c1` (stereo not shown), with 6.95%; and `O=C1CC(N(Cc2ccc3c(c2)OCO3)C(=O)Nc2ccc(F)cc2)C(=O)N1c1ccccc1` (stereo not shown), with 2.28%.
For the compound `COc1ccccc1N1CCN(CC(=O)c2c(C)[nH]c3cc(C)ccc23)CC1`, the “hERG current change (%, negative = inhibition) at 10uM” value is on record as -31%.
Then `O=C(COc1ccc2ccccc2c1)Nc1ccc(Cc2ccncc2)cc1`, with 4.87%; and `Cc1ccc(NC(=O)C2COc3ccccc3O2)cc1S(=O)(=O)N1CCOCC1` (stereo not shown), with -34.2%; and `CCc1ccc(CNC(=O)Cn2nc(-c3ccccc3)ccc2=O)cc1`, with -43.9%.
In the case of `COc1ccc(CCNc2ncnc3nc[nH]c23)cc1OC`, the “hERG current change (%, negative = inhibition) at 10uM” value is listed as 4.12%.
`Cc1ccc(/C=C2\C(=O)ON=C2c2ccccc2)o1`: the “hERG current change (%, negative = inhibition) at 10uM” value is 29.1%.
With `C#CCOc1ccc(Cl)cc1/C=N/O`, the “hERG current change (%, negative = inhibition) at 10uM” value is recorded as -3.19%.
Consider `CC(=O)Nc1ccc(NC(=O)C2CC(=O)N(Cc3ccccc3)C2)cc1` (stereo not shown), for which the “hERG current change (%, negative = inhibition) at 10uM” value worked out at 17%.
Turning to `COc1ccccc1NC(=O)Nc1ccc2c(c1)nc(C)n2C`, the “hERG current change (%, negative = inhibition) at 10uM” value is reported as -0.807%.
Then `O=c1c(Cl)c(NCc2ccccc2)cnn1C12CC3CC(CC(C3)C1)C2`, with -24%; and `CN(C)S(=O)(=O)n1cc(/C=C(\NC(=O)c2ccccc2)C(=O)N2CCOCC2)c2ccccc21`, with 21.2%; and `COc1cc2[nH]c(=O)n3nc(-c4ccccc4)nc3c2cc1OC`, with -11.7%.
Next, `COc1ccc(CCNC(=O)c2ccc(COc3ccccc3OC)o2)cc1`: -8.72%.
`CCC(=O)Nc1ccc(NC(=O)c2ccc3c(c2)OCO3)cc1`: the “hERG current change (%, negative = inhibition) at 10uM” value was found to be 0.362%.
Turning to `Cc1ccc([N+](=O)[O-])c(C(=O)Nc2cccnc2Cl)c1`, the “hERG current change (%, negative = inhibition) at 10uM” value turned out to be 9.75%.
For `Cc1cc(=O)n(-c2ccccc2Cl)[nH]1`, the “hERG current change (%, negative = inhibition) at 10uM” value was 9.54%.
As for `C=CCn1c(O)c(C(C)=NC(C)c2ccccc2)c(=O)[nH]c1=O` (stereo not shown), the “hERG current change (%, negative = inhibition) at 10uM” value is recorded as -3.54%.
Then `CCCOC(=S)NC(=O)c1sc2ccccc2c1Cl`, with 12.3%.
Consider `CCCCOc1ccc2c(C)cc(=O)oc2c1OCCCC`, for which the “hERG current change (%, negative = inhibition) at 10uM” value is 3.03%.
For `CCN=C1SC(C(=O)Nc2ccc(OCC)cc2)CC(=O)N1CC` (stereo not shown), the “hERG current change (%, negative = inhibition) at 10uM” value was 10.6%.
As to `CCOc1c(CNCCCSc2nc(C)cc(C)n2)cccc1OC.Cl`, the “hERG current change (%, negative = inhibition) at 10uM” value is listed as -11.1%.
For the compound `COC(=O)c1ccc(NC(=O)CN2C(=O)CNC2=O)cc1`, the “hERG current change (%, negative = inhibition) at 10uM” value is on record as 14%.
Then `COc1cc(OC)c(NC2=NCCCCC2)cc1Cl`, with -0.664%.
As for `Cc1ccccc1C(=O)NC(=S)Nc1ccc(S(=O)(=O)N2CCN(C)CC2)cc1`, the “hERG current change (%, negative = inhibition) at 10uM” value is 7.75%.
As for `CCc1cc2c(SCC(=O)c3ccc(Cl)s3)ncnc2s1`, the “hERG current change (%, negative = inhibition) at 10uM” value is -5.89%.
Then `Cc1cc(C)nc(Sc2nc(Nc3ccccc3)nc(Sc3nc(C)cc(C)n3)n2)n1`, with -4.94%.
In the case of `COc1ccccc1-c1noc(CCCC(=O)NC2CCCC2)n1`, the “hERG current change (%, negative = inhibition) at 10uM” value is 9.49%.
On to `CCOc1ccc2[nH]c3c(N4CCC5(CC4)OCCO5)ncnc3c2c1`, for which the “hERG current change (%, negative = inhibition) at 10uM” value came to 5.84%.
As for `Cc1ccc(C)c(NC(=O)COc2coc(CN3CCc4ccccc4C3)cc2=O)c1`, the “hERG current change (%, negative = inhibition) at 10uM” value is reported as -26.5%.
Turning to `CC(Sc1nnc2c(n1)C1CCC2(C)C1(C)C)C(=O)Nc1ccccc1` (stereo not shown), the “hERG current change (%, negative = inhibition) at 10uM” value is given as -15%.
In the case of `C=CCOc1c(CNC2CCCC2)cc(Cl)cc1OC.Cl`, the “hERG current change (%, negative = inhibition) at 10uM” value is on record as -23.6%.
